# In PMC9911399, “Two distinct binding modes provide the RNA-binding protein RbFox with extraordinary sequence specificity”:
# Substitutions are numbered along the chain they refer to; changes in the protein carry UniProt numbers. The list shows a part of the results.
# T1: RBFOX1 RRM RbFoxmut (Fox-RRM*) (Homo sapiens, UniProt Q9NWB1 109-208, R118D;E147R;N151S;E152T)
# T1 sequence: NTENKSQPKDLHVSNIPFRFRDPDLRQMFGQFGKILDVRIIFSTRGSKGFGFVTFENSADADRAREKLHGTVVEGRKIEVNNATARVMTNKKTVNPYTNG
# B1: GUAUGGA (DNA:RNA)
# RNA: GGGAGACCGGAAUUCAGAUUGUCCGUAUGGAUUAAAUCCCGUCGUAGCCACCA
# DNA 1: CAATCTGAATTCCGGTCTCCC
# DNA 2: TGGTGGCTACGACGGGATT
# B2: AUUGGCA (DNA:RNA)
# RNA: B1 RNA with G25A, A27U, U28G, G30C
# DNA 1: CAATCTGAATTCCGGTCTCCC
# DNA 2: TGGTGGCTACGACGGGATT
# B3: UCGACGC (DNA:RNA)
# RNA: B1 RNA with G25U, U26C, A27G, U28A, G29C, A31C
# DNA 1: CAATCTGAATTCCGGTCTCCC
# DNA 2: TGGTGGCTACGACGGGATT
# B4: GCCGAAA (DNA:RNA)
# RNA: B1 RNA with U26C, A27C, U28G, G29A, G30A
# DNA 1: CAATCTGAATTCCGGTCTCCC
# DNA 2: TGGTGGCTACGACGGGATT
# B5: ACUAUAC (DNA:RNA)
# RNA: GGGAGACCGGAAUUCAGAUUGUCCACUAUACUUAAAUCCCGUCGUAGCCACCA
# DNA 1: CAATCTGAATTCCGGTCTCCC
# DNA 2: TGGTGGCTACGACGGGATT
# B6: UAUGUAG (DNA:RNA)
# RNA: B5 RNA with A25U, C26A, A28G, C31G
# DNA 1: CAATCTGAATTCCGGTCTCCC
# DNA 2: TGGTGGCTACGACGGGATT
# B7: UGAUACU (DNA:RNA)
# RNA: B1 RNA with G25U, U26G, G29A, G30C, A31U
# DNA 1: CAATCTGAATTCCGGTCTCCC
# DNA 2: TGGTGGCTACGACGGGATT
# B8: GUGCUCU (DNA:RNA)
# RNA: B1 RNA with A27G, U28C, G29U, G30C, A31U
# DNA 1: CAATCTGAATTCCGGTCTCCC
# DNA 2: TGGTGGCTACGACGGGATT
# B9: UCGUGAA (DNA:RNA)
# RNA: B1 RNA with G25U, U26C, A27G, G30A
# DNA 1: CAATCTGAATTCCGGTCTCCC
# DNA 2: TGGTGGCTACGACGGGATT
# B10: GCGCGGU (DNA:RNA)
# RNA: B1 RNA with U26C, A27G, U28C, A31U
# DNA 1: CAATCTGAATTCCGGTCTCCC
# DNA 2: TGGTGGCTACGACGGGATT
# B11: AAAGUCA (DNA:RNA)
# RNA: B5 RNA with C26A, U27A, A28G, A30C, C31A
# DNA 1: CAATCTGAATTCCGGTCTCCC
# DNA 2: TGGTGGCTACGACGGGATT
# B12: AAAGGGG (DNA:RNA)
# RNA: B1 RNA with G25A, U26A, U28G, A31G
# DNA 1: CAATCTGAATTCCGGTCTCCC
# DNA 2: TGGTGGCTACGACGGGATT
# B13: UCGCACC (DNA:RNA)
# RNA: B5 RNA with A25U, U27G, A28C, U29A, A30C
# DNA 1: CAATCTGAATTCCGGTCTCCC
# DNA 2: TGGTGGCTACGACGGGATT
# B14: AGGCCGA (DNA:RNA)
# RNA: B1 RNA with G25A, U26G, A27G, U28C, G29C
# DNA 1: CAATCTGAATTCCGGTCTCCC
# DNA 2: TGGTGGCTACGACGGGATT
# B15: UGGCCAG (DNA:RNA)
# RNA: B5 RNA with A25U, C26G, U27G, A28C, U29C, C31G
# DNA 1: CAATCTGAATTCCGGTCTCCC
# DNA 2: TGGTGGCTACGACGGGATT
# B16: UUACUAU (DNA:RNA)
# RNA: B5 RNA with A25U, C26U, U27A, A28C, C31U
# DNA 1: CAATCTGAATTCCGGTCTCCC
# DNA 2: TGGTGGCTACGACGGGATT
# B17: UUGCGAC (DNA:RNA)
# RNA: B5 RNA with A25U, C26U, U27G, A28C, U29G
# DNA 1: CAATCTGAATTCCGGTCTCCC
# DNA 2: TGGTGGCTACGACGGGATT
# B18: GGAUGCU (DNA:RNA)
# RNA: B1 RNA with U26G, G30C, A31U
# DNA 1: CAATCTGAATTCCGGTCTCCC
# DNA 2: TGGTGGCTACGACGGGATT
# B19: GGACGGU (DNA:RNA)
# RNA: B1 RNA with U26G, U28C, A31U
# DNA 1: CAATCTGAATTCCGGTCTCCC
# DNA 2: TGGTGGCTACGACGGGATT
# B20: GCUUAGC (DNA:RNA)
# RNA: B5 RNA with A25G, A28U, U29A, A30G
# DNA 1: CAATCTGAATTCCGGTCTCCC
# DNA 2: TGGTGGCTACGACGGGATT
# Target: T1, RBFOX1 RRM RbFoxmut (Fox-RRM*)
# Assay: EMSA; HiTS-Eq, 1 nM pool, 10 min; buffer printed only for the single-RNA assays: 10 mM Tris pH 7.5, 150 mM NaCl, 3.4 mM EDTA, 0.001% NP-40, 30 C
# Settings: tags: His6 N-terminal (pET28a); label: 5' 32P
# How it was run: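 Purified wild-type or mutant RbFox RRM at increasing concentrations was equilibrated with 1 nM of 5′-radiolabelled RNA carrying 7 randomized nucleotides for 10 min in 50 µL. Unbound RNA was separated by 8% native PAGE and sequenced. Relative association constants came from read-count changes of each RNA species compared with the control reaction, normalised to the cognate motif.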
row,Binder,binding signal
1,B1,0.0822 KA relative to UGCAUGU
2,B2,0.137 KA relative to UGCAUGU
3,B3,0.0785 KA relative to UGCAUGU
4,B4,0.0996 KA relative to UGCAUGU
5,B5,0.136 KA relative to UGCAUGU
6,B6,0.131 KA relative to UGCAUGU
7,B7,0.112 KA relative to UGCAUGU
8,B8,0.0834 KA relative to UGCAUGU
9,B9,0.122 KA relative to UGCAUGU
10,B10,0.125 KA relative to UGCAUGU
11,B11,0.109 KA relative to UGCAUGU
12,B12,0.0723 KA relative to UGCAUGU
13,B13,0.132 KA relative to UGCAUGU
14,B14,0.0992 KA relative to UGCAUGU
15,B15,0.102 KA relative to UGCAUGU
16,B16,0.0827 KA relative to UGCAUGU
17,B17,0.0614 KA relative to UGCAUGU
18,B18,0.142 KA relative to UGCAUGU
19,B19,0.119 KA relative to UGCAUGU
20,B20,0.0988 KA relative to UGCAUGU
